Test results published in article PMC4577084.
These are yes or no findings as the source states them, for the method shown. For part of these data: Binding seen in cells or lysates may run through a third protein. Some binding calls cover weakened binding; strength is not graded here. For part of these data: Sequences can lack the tags named with a protein.

Key:
[1] = target: T1, PETAL LOSS (PTL), yeast two-hybrid fusion (Arabidopsis thaliana) (UniProt Q9LZS0); assay: two-hybrid; Matchmaker GAL4 Two-Hybrid System 3, pGBKT7 bait and pGADT7 prey in yeast strain AH109; growth on medium lacking Leu, Trp, His and Ade or supplemented with 2.5 mM 3-AT
T1 sequence: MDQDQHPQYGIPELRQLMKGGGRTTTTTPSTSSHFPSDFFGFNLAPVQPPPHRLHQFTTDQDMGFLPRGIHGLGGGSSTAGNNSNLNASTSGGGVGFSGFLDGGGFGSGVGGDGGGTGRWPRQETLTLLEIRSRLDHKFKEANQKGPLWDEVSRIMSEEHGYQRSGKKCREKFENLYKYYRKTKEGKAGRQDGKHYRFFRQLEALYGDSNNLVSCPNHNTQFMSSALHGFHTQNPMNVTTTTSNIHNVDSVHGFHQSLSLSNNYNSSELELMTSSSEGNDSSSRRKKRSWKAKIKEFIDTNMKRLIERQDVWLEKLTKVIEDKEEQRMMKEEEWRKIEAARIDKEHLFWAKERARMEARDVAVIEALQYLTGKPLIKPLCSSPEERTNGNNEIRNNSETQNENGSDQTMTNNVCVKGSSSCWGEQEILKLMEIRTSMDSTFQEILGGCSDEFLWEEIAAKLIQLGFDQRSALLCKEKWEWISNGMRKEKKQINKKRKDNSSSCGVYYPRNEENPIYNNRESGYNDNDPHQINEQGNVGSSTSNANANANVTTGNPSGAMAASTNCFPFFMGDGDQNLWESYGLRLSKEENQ

[2] = target: T2, BLADE-ON-PETIOLE 1 (BOP1), yeast two-hybrid fusion (Arabidopsis thaliana) (UniProt Q9M1I7); assay: as above
T2 sequence: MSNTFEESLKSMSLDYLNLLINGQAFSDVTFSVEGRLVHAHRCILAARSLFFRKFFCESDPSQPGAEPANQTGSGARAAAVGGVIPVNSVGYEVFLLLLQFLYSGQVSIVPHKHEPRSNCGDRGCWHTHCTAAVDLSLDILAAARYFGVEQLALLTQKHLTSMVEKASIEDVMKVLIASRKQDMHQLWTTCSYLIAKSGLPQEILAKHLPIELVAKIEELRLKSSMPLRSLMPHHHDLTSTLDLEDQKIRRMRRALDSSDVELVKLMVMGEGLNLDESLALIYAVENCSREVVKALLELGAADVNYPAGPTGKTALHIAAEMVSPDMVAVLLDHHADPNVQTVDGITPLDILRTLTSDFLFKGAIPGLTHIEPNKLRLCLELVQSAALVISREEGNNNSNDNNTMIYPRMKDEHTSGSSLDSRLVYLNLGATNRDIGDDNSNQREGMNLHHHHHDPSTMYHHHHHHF

[3] = target: T3, KNAT1/B…US (BP), yeast two-hybrid fusion (Arabidopsis thaliana) (UniProt P46639); assay: as above
T3 sequence: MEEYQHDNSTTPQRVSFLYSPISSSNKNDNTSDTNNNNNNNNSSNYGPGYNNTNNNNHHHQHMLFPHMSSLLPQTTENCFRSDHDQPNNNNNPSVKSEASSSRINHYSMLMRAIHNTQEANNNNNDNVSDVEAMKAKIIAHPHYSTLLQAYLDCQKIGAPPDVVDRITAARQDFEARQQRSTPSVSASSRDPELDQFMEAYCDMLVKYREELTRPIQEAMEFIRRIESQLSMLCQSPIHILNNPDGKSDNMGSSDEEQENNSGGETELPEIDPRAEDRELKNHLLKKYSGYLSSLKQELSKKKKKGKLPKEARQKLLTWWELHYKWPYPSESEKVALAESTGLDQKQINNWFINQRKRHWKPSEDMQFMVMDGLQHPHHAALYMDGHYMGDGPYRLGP

[4] = target: HANABA TARANU (HAN), yeast two-hybrid fusion (Arabidopsis thaliana) (UniProt Q8LC79); assay: as above
[5] = target: T4, BLADE-ON-PETIOLE 2 (BOP2), yeast two-hybrid fusion (Arabidopsis thaliana) (UniProt Q9ZVC2); assay: as above
T4 sequence: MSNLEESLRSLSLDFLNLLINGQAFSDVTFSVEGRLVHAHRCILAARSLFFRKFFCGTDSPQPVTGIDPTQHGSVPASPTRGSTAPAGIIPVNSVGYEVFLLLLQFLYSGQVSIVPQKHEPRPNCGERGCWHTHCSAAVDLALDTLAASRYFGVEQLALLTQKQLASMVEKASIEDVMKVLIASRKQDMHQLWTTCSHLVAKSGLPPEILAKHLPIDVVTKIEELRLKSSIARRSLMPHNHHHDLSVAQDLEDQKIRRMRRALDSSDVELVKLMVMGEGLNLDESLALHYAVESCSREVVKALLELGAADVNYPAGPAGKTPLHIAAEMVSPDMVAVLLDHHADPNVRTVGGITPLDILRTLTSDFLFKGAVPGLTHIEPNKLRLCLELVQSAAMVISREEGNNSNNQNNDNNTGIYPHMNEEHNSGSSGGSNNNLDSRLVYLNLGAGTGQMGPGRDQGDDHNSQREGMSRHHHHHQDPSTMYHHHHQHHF

[6] = target: T5, JAGGED (JAG), yeast two-hybrid fusion (Arabidopsis thaliana) (UniProt Q6S591); assay: as above
T5 sequence: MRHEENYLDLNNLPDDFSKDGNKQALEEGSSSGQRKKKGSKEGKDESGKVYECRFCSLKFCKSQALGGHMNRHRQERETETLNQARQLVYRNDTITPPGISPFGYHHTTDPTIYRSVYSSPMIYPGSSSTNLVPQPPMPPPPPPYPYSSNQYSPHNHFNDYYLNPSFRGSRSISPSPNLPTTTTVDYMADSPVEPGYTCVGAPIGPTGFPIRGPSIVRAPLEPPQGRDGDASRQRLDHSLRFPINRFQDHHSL

[7] = target: T6, KNAT1/B…US (BP) fused with a half of YFP (BiFC) (Arabidopsis thaliana) (UniProt P46639); assay: split reporter; BiFC: fusions with YFP N- or C-terminal half (pSPYNE-35S, pSPYCE-35S) co-introduced into the abaxial side of Nicotiana benthamiana leaves; imaged 48 h after co-infiltration; YFP fluorescence in nuclei
T6 sequence: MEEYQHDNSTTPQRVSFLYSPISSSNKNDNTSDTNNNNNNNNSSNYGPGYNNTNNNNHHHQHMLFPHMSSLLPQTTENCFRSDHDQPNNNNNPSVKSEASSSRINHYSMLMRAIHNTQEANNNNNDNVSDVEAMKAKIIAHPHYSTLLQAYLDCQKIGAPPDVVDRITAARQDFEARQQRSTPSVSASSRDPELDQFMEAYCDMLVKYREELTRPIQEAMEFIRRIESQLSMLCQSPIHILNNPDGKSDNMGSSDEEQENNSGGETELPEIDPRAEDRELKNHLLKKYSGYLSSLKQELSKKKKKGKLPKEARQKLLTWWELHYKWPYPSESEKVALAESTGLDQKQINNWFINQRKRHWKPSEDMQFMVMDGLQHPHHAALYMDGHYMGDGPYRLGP

[8] = target: T7, SPATULA (SPT)-YFPN (Arabidopsis thaliana) (UniProt Q9FUA4); assay: as above
T7 sequence: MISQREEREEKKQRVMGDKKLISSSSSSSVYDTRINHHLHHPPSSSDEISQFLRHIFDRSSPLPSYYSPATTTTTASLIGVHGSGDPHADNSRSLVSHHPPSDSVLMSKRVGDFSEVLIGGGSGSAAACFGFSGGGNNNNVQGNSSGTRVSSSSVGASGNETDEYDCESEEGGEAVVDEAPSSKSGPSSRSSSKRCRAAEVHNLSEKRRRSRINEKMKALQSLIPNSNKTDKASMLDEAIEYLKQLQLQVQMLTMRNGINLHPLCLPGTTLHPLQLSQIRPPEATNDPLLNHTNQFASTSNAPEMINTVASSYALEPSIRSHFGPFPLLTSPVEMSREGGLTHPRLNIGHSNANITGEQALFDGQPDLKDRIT

B1: HANABA TARANU (HAN), yeast two-hybrid fusion (protein, UniProt Q8LC79 1-295)
chain: MMQTPYTTSTQGQYCHSCGMFHHHSQSCCYNNNNNSNAGSYSMVFSMQNGGVFEQNGEDYHHSSSLVDCTLSLGTPSTRLCEEDEKRRRSTSSGASSCISNFWDLIHTKNNNSKTAPYNNVPSFSANKPSRGCSGGGGGGGGGGGGDSLLARRCANCDTTSTPLWRNGPRGPKSLCNACGIRFKKEERRTTAATGNTVVGAAPVQTDQYGHHNSGYNNYHAATNNNNNNGTPWAHHHSTQRVPCNYPANEIRFMDDYGSGVANNVESDGAHGGVPFLSWRLNVADRASLVHDFTR
For B1, the binding [1] was “no binding”, the binding [2] was “no binding” and the binding [3] was “no binding”. For the same binder, the binding [4] was “binds”, the binding [5] was “no binding” and the binding [6] was “binds”.

B2: PINHEAD (PNH) fused with a half of YFP (BiFC) (protein, UniProt Q9XGW1 1-988)
chain: MPIRQMKDSSETHLVIKTQPLKHHNPKTVQNGKIPPPSPSPVTVTTPATVTQSQASSPSPPSKNRSRRRNRGGRKSDQGDVCMRPSSRPRKPPPPSQTTSSAVSVATAGEIVAVNHQMQMGVRKNSNFAPRPGFGTLGTKCIVKANHFLADLPTKDLNQYDVTITPEVSSKSVNRAIIAELVRLYKESDLGRRLPAYDGRKSLYTAGELPFTWKEFSVKIVDEDDGIINGPKRERSYKVAIKFVARANMHHLGEFLAGKRADCPQEAVQILDIVLRELSVKRFCPVGRSFFSPDIKTPQRLGEGLESWCGFYQSIRPTQMGLSLNIDMASAAFIEPLPVIEFVAQLLGKDVLSKPLSDSDRVKIKKGLRGVKVEVTHRANVRRKYRVAGLTTQPTRELMFPVDENCTMKSVIEYFQEMYGFTIQHTHLPCLQVGNQKKASYLPMEACKIVEGQRYTKRLNEKQITALLKVTCQRPRDRENDILRTVQHNAYDQDPYAKEFGMNISEKLASVEARILPAPWLKYHENGKEKDCLPQVGQWNMMNKKMINGMTVSRWACVNFSRSVQENVARGFCNELGQMCEVSGMEFNPEPVIPIYSARPDQVEKALKHVYHTSMNKTKGKELELLLAILPDNNGSLYGDLKRICETELGLISQCCLTKHVFKISKQYLANVSLKINVKMGGRNTVLVDAISCRIPLVSDIPTIIFGADVTHPENGEESSPSIAAVVASQDWPEVTKYAGLVCAQAHRQELIQDLYKTWQDPVRGTVSGGMIRDLLISFRKATGQKPLRIIFYRDGVSEGQFYQVLLYELDAIRKACASLEPNYQPPVTFIVVQKRHHTRLFANNHRDKNSTDRSGNILPGTVVDTKICHPTEFDFYLCSHAGIQGTSRPAHYHVLWDENNFTADGIQSLTNNLCYTYARCTRSVSIVPPAYYAHLAAFRARFYLEPEIMQDNGSPGKKNTKTTTVGDVGVKPLPALKENVKRVMFYC
For B2, the binding [7] was “binds”.

B3: … (IND)-YFPC (protein, UniProt O81313 1-198)
chain: MENGMYKKKGVCDSCVSSKSRSNHSPKRSMMEPQPHHLLMDWNKANDLLTQEHAAFLNDPHHLMLDPPPETLIHLDEDEEYDEDMDAMKEMQYMIAVMQPVDIDPATVPKPNRRNVRISDDPQTVVARRRRERISEKIRILKRIVPGGAKMDTASMLDEAIRYTKFLKRQVRILQPHSQIGAPMANPSYLCYYHNSQP
B3 was tested, and the binding [8] was “binds”.

B4: PETAL LOSS (PTL), yeast two-hybrid fusion (protein, UniProt Q9LZS0 1-591)
chain: MDQDQHPQYGIPELRQLMKGGGRTTTTTPSTSSHFPSDFFGFNLAPVQPPPHRLHQFTTDQDMGFLPRGIHGLGGGSSTAGNNSNLNASTSGGGVGFSGFLDGGGFGSGVGGDGGGTGRWPRQETLTLLEIRSRLDHKFKEANQKGPLWDEVSRIMSEEHGYQRSGKKCREKFENLYKYYRKTKEGKAGRQDGKHYRFFRQLEALYGDSNNLVSCPNHNTQFMSSALHGFHTQNPMNVTTTTSNIHNVDSVHGFHQSLSLSNNYNSSELELMTSSSEGNDSSSRRKKRSWKAKIKEFIDTNMKRLIERQDVWLEKLTKVIEDKEEQRMMKEEEWRKIEAARIDKEHLFWAKERARMEARDVAVIEALQYLTGKPLIKPLCSSPEERTNGNNEIRNNSETQNENGSDQTMTNNVCVKGSSSCWGEQEILKLMEIRTSMDSTFQEILGGCSDEFLWEEIAAKLIQLGFDQRSALLCKEKWEWISNGMRKEKKQINKKRKDNSSSCGVYYPRNEENPIYNNRESGYNDNDPHQINEQGNVGSSTSNANANANVTTGNPSGAMAASTNCFPFFMGDGDQNLWESYGLRLSKEENQ
In the case of B4, the binding [6] is reported as “no binding”.
